Test in all cases: Primary Screen for Target Class Profiling of Small Molecule Inhibitors of Methyltransferases
Experiment [1] has as its target Glycine N-methyltransferase (Homo sapiens) (UniProt Q14749). The settings on record: purified enzyme, MTase-Glo SAH luminescence; measured here: GNMT inhibition; at 40 µM; stronger effect = lower value. Put shortly: (§1)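 Each enzyme was assayed with SAM and its substrate. SAH formation detected by MTase-Glo luminescence; single-point 40 uM screen[…].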
Experiment [2] deals with Guanidinoacetate N-methyltransferase (Homo sapiens) (UniProt Q14353). The settings on record: purified enzyme, MTase-Glo SAH luminescence; measured here: GAMT inhibition; at 40 µM; stronger effect = lower value. The procedure, abridged: as §1
Experiment [3] concerns the target Histamine N-methyltransferase (Homo sapiens) (UniProt P50135). The settings on record: purified enzyme, MTase-Glo SAH luminescence; measured here: HNMT inhibition; at 40 µM; stronger effect = lower value. The procedure, abridged:
as §1

For experiment [4], the target named is Nicotinamide N-methyltransferase (Homo sapiens) (UniProt P40261). The settings on record: purified enzyme, MTase-Glo SAH luminescence; measured here: NNMT inhibition; at 40 µM; stronger effect = lower value. Put shortly: as §1
For experiment [5], the target named is Phenylethanolamine N-methyltransferase (Homo sapiens) (UniProt P11086). Particulars: purified enzyme, MTase-Glo SAH luminescence; measured here: PNMT inhibition; at 40 µM; stronger effect = lower value. Put shortly:
as §1

Molecules are shown by their SMILES. This is one part of the list. These are further read-outs of the screen, such as a control signal, another cell line or another target. No call is given for them.

The values that follow come from PubChem BioAssay AID1745853 (National Center for Advancing Translational Sciences (NCATS), 2022).
On the % scale 0 is the no-effect control and ±100 the full control effect.

Consider `COc1ccccc1C(=O)N1Cc2c(C(=O)NC3CC3)nn(C)c2C1`, for which the activity change, negative = inhibition was -0.667% in experiment [1]; 2.21% in experiment [2]; 2.54% in experiment [3]; -1.02% in experiment [4]; 14.7% in experiment [5].

Take `Cn1c(=O)n(C)c2cc(S(=O)(=O)N(Cc3ccccc3)C(=O)c3cccs3)ccc21`: the activity change, negative = inhibition was 2.11% in experiment [1]; 0% in experiment [2]; 0.669% in experiment [3]; -17.8% in experiment [4]; -1.08% in experiment [5].

As for `Nc1nonc1C(=Nc1ccc(F)c(Cl)c1)NO`, the activity change, negative = inhibition in experiment [1] is -6.58%; in experiment [2], -1.45%; in experiment [3], 3.51%; in experiment [4], -13%; in experiment [5], 1.49%.

Regarding `CCCn1c(=O)c2ccc(C(=O)NC(C)C)cc2n2c(=O)n(CC(=O)Nc3cc(C)cc(C)c3)nc12`, the activity change, negative = inhibition in experiment [1] came to 3.93%; in experiment [2], 0%; in experiment [3] it was 4.84%; in experiment [4], 3.57%; in experiment [5], 2.84%.

Consider `CC1(C(=O)NC2CCCC2)Cn2c(ccc2-c2ccco2)C(=O)N1c1ccc(F)cc1` (configuration not stated), for which the activity change, negative = inhibition in experiment [1] is 0.653%; in experiment [2], 0%; in experiment [3], 1.27%; in experiment [4] it was -2.76%; in experiment [5], -4.71%.

In the case of `CC(C)Cn1c(=O)c2cc(F)ccc2n2c(SCC(=O)Nc3cc(F)ccc3F)nnc12`, the activity change, negative = inhibition was -4.67% in experiment [1]; 4.71% in experiment [2]; 3.03% in experiment [3]; -11.8% in experiment [4]; -0.144% in experiment [5].

As to `CCCN(CCC)C(=O)Cn1c(=O)oc2cc(S(=O)(=O)N3CC(C)CC(C)C3)ccc21` (configuration not stated), the activity change, negative = inhibition was -5.87% in experiment [1]; 0.363% in experiment [2]; -9.45% in experiment [3]; -1.21% in experiment [4]; -10.6% in experiment [5].

For `COc1ccccc1CNC(=O)C1c2c(n(C)c3ccccc23)SCC(=O)N1c1ccc2c(c1)OCCO2` (configuration not stated), the activity change, negative = inhibition is 7.47% in experiment [1]; 2.19% in experiment [2]; 2.56% in experiment [3]; -0.415% in experiment [4]; 4.64% in experiment [5].

In the case of `O=C1NCCCN1C1CCN(Cc2ccncc2)CC1`, the activity change, negative = inhibition in experiment [1] was -1.38%; in experiment [2] it was -12.2%; in experiment [3] it was -1.65%; in experiment [4] it was -14.8%; in experiment [5], -6.15%.

For `Cc1ccc(CNC(=O)Cn2nc3n(C(C)C)c(=O)c4ccc(C(=O)NC5CCCC5)cc4n3c2=O)cc1`, the activity change, negative = inhibition is 3.31% in experiment [1]; 6.18% in experiment [2]; 1.23% in experiment [3]; -7.46% in experiment [4]; -2.61% in experiment [5].

On to `C=C1[C@@H](OC(C)=O)CC[C@@]2(C)[C@@H](OC(C)=O)[C@H](OC(C)=O)C3=C(C)C[C@H](OC(=O)C(C)CC)[C@@H]([C@@H](OC(C)=O)[C@H]12)C3(C)C` (some centres not stated), for which the activity change, negative = inhibition in experiment [1] is -3.69%; in experiment [2] it was -3.92%; in experiment [3], 3.95%; in experiment [4], -20.7%; in experiment [5], -10.6%.

As for `CC(CCc1ccccc1)N1C(=O)c2cc3sccc3n2CC1(C)C(=O)NC1CCCCCC1` (configuration not stated), the activity change, negative = inhibition is -7.6% in experiment [1]; 4.24% in experiment [2]; -2.34% in experiment [3]; -7.77% in experiment [4]; -3.47% in experiment [5].

Take `O[C@@H]1C[C@@H](c2nc(-c3ccncc3)no2)N(Cc2cccs2)C1`: the activity change, negative = inhibition was -7.17% in experiment [1]; -5.26% in experiment [2]; -2.35% in experiment [3]; -12.2% in experiment [4]; 7.81% in experiment [5].

For the compound `Cc1ccc(CCNC(=O)c2ncn3c2C(=O)N(C2CC2)C(C)(C(=O)NC2CCCC2)C3)cc1` (configuration not stated), the activity change, negative = inhibition in experiment [1] is -2.65%; in experiment [2], 0%; in experiment [3], 3.7%; in experiment [4], -1.08%; in experiment [5], 0.324%.

Turning to `Oc1ccc(Cn2cc[nH]c2=S)cc1`, the activity change, negative = inhibition in experiment [1] is -21.1%; in experiment [2], 10.8%; in experiment [3], 4.96%; in experiment [4] it was -5.79%; in experiment [5], 5.02%.

Take `CCc1ccc(NC(=O)Cn2nc3n(Cc4ccc(C)cc4)c(=O)c4ccccc4n3c2=O)cc1`: the activity change, negative = inhibition was determined as 3.77% in experiment [1]; 0% in experiment [2]; 5.46% in experiment [3]; 3.11% in experiment [4]; 2.26% in experiment [5].

For the compound `CCc1ccc(NC(=O)Cn2nc3n(CCc4ccccc4)c(=O)c4ccccc4n3c2=O)cc1`, the activity change, negative = inhibition in experiment [1] worked out at 4.41%; in experiment [2] it was 0.667%; in experiment [3], 6.35%; in experiment [4], 6.98%; in experiment [5], 3.4%.

For `COCCN1C(=O)c2ccccc2C(C(=O)Nc2cc(C)ccn2)C12CCCC2` (configuration not stated), the activity change, negative = inhibition in experiment [1] was -7.26%; in experiment [2], -11.5%; in experiment [3], -4.33%; in experiment [4], -5.3%; in experiment [5] it was -11.5%.

As for `O=C1N(Cc2cccc(F)c2F)CCCC1(O)CN1CCNCC1` (configuration not stated), the activity change, negative = inhibition in experiment [1] was -0.256%; in experiment [2] it was -9.99%; in experiment [3] it was -1.85%; in experiment [4] it was -11.8%; in experiment [5] it was -4.85%.

`CC(c1ncncc1F)C(O)(Cn1cncn1)c1ccc(F)cc1F` (configuration not stated): the activity change, negative = inhibition is 4.57% in experiment [1] and 0.832% in experiment [3].

Consider `Cc1nc(-c2c3n(c(=O)n(CC#N)c2=O)CCCCC3)no1`, for which the activity change, negative = inhibition is -1.66% in experiment [1]; -3.78% in experiment [2]; -0.529% in experiment [3]; -1.25% in experiment [4]; -0.855% in experiment [5].

With `CC(C)c1cc2n(n1)CC(C)(C(=O)NC1CCCCCC1)N(Cc1ccc(Cl)cc1)C2=O` (configuration not stated), the activity change, negative = inhibition in experiment [1] is -4.04%; in experiment [2], 2.15%; in experiment [3] it was 0.234%; in experiment [4], -6.16%; in experiment [5], -1.77%.

For `Cc1ccc(CSc2nnc3n(CCC(C)C)c(=O)c4ccccc4n23)cc1`, the activity change, negative = inhibition in experiment [1] was 0.902%; in experiment [2] it was 3.93%; in experiment [3], 6.89%; in experiment [4], -1.95%; in experiment [5] it was 7.19%.

With `O=C(NC/C=C/CN1CCN(c2cccc(Cl)c2Cl)CC1)c1ccc(-c2ccccn2)cc1`, the activity change, negative = inhibition is 1.64% in experiment [1]; -1.26% in experiment [2]; 0.727% in experiment [3]; -32.9% in experiment [4]; -15.1% in experiment [5].

In the case of `C[C@@H]1C(=O)O[C@H]2CC34[C@H]5C[C@@H](C(C)(C)C)C36[C@@H](OC(=O)[C@@H]6O)O[C@@]4(C(=O)O5)[C@]21O` (some centres not stated), the activity change, negative = inhibition in experiment [1] is -1.01%; in experiment [2], -3.05%; in experiment [3], -0.444%; in experiment [4] it was -13.1%; in experiment [5], 0.868%.

For the compound `O=c1n(-c2ccc(C(F)(F)F)cc2)nc2n1CCN([S+](=O)([O-])c1ccccc1)C2`, the activity change, negative = inhibition is -3.8% in experiment [1]; -6.91% in experiment [2]; -3.67% in experiment [3]; -5.05% in experiment [4]; -3.8% in experiment [5].

For `COc1ccccc1N1CCN(CCN(C(=O)c2ccc(F)cc2)c2ccccn2)CC1`, the activity change, negative = inhibition is -0.287% in experiment [1]; 10.6% in experiment [2]; 5.87% in experiment [3]; -2.63% in experiment [4]; 6.74% in experiment [5].

In the case of `c1ccc(-c2ccccn2)nc1`, the activity change, negative = inhibition in experiment [1] is -9.62%; in experiment [2] it was -0.33%; in experiment [3], -3.37%; in experiment [4] it was -8.94%; in experiment [5], 1.05%.

As for `O=C(O)c1ccc2c(c1)nc(Nc1cccc(Cl)c1)c1ccncc12`, the activity change, negative = inhibition is -67.2% in experiment [1]; -39% in experiment [2]; -72.3% in experiment [3]; -50.3% in experiment [4]; -53% in experiment [5].
